The list shows a part of the results. Shown are side measurements of this screen, not its main read-out; they come without a call.
Assay: enhancers of HSV replication in host cells, fold increase, host cell viability (AID 1956); note: tested in PC3 cells
Settings: HSV replication augmentation in cells; fold increase: measured here: primary screen fold increase 10 uM, at 10 µM, stronger effect = higher value; viability: measured here: host cell viability series, at 25 µM, stronger effect = lower value

Row | SMILES | fold increase | viability [%]
1 | COC(=O)CC(=O)c1ccc2c(c1)OCO2 | 1.34 | 103
2 | Cc1ccc(N2C(=O)NC(=O)/C(=C/C=C/c3ccco3)C2=O)cc1 | 1.85 | 
3 | CCCC(=O)NC(Oc1ccc(OC)cc1)C(Cl)(Cl)Cl (stereo unspecified) | 1.33 | 93.5
4 | CCc1ccc(N2C(=O)NC(=O)/C(=C\C=C\c3ccco3)C2=O)cc1 | 2.36 | 
5 | Nc1ccc2nonc2c1[N+](=O)[O-] | 3.22 | 103
6 | C=CCN1C(=O)NC(=O)/C(=C/c2ccoc2)C1=O | 1.37 | 94.1
7 | C=CCn1c(=O)c(C=Nc2cccnc2Cl)c(O)n(CCCC)c1=O | 1.43 | 106
8 | CC(C)c1ccc(N2C(=O)NC(=O)/C(=C/c3cnc(-c4ccccc4)nc3)C2=O)cc1 | 3.53 | 
9 | COc1ccc(CN2C(=O)CC(=O)NC2=S)cc1 | 1.45 | 102
10 | Cn1c(=O)oc2cc(S(=O)(=O)N3CCC(C(=O)Nc4ccc(OC(F)(F)F)cc4)CC3)ccc21 | 1.53 | 96.6
11 | CN1C(=O)C(=Cc2sc(=O)n(-c3ccccc3)c2N(C)C)C(=O)N(C)C1=O | 1.38 | 82.2
12 | CN1C(=O)C(=Cc2ccc(N3CCCCCC3)o2)C(=O)N(C)C1=S | 9.8 | 84.5
13 | Cc1ccc(-n2c(O)c(/C=C/C=Nc3ccccc3)c(=O)[nH]c2=O)cc1 | 2.75 | 
14 | O=C1CC(N2CC=C(c3ccccc3)CC2)C(=O)N1c1ccc(F)cc1 (stereo unspecified) | 1.38 | 93.8
15 | CC(C)c1ccc(N2C(=O)NC(=O)/C(=C\C=C\c3ccco3)C2=O)cc1 | 1.5 | 
16 | O=[N+]([O-])c1cccc2c([As](=O)(O)O)cccc12 | 1.34 | 98.6
17 | CC(C)n1c(=O)c(C=Nc2cccc([N+](=O)[O-])c2)c(O)n(CCc2ccccc2)c1=O | 1.77 | 90.8
18 | CCN(CC)c1ccc(/C=N/c2sc3c(c2C#N)C2CCN3CC2)c(O)c1 | 7.18 | 78.6
19 | O=[N+]([O-])c1ccc(NCc2ccccc2)c2nonc12 | 9.09 | 
20 | CN1CCN(c2nc3ccccn3c(=O)c2C=C2C(=O)N(C)C(=O)N(C)C2=O)CC1 | 1.65 | 
21 | CCCCn1c(O)c(C(C)=NCCCn2ccnc2)c(=O)[nH]c1=O | 1.32 | 
22 | O=C1NC(=O)C2=Cc3ccc(O)cc3OC2(O)N1 (stereo unspecified) | 2.97 | 91.6
23 | CC(C)(C)OC(=O)c1c(N)n(Cc2ccco2)c2nc3ccccc3nc12 | 1.45 | 94.7
24 | Cc1cc(OC(=O)N(C)C)nc(-c2ccc(C)c(Cl)c2)n1 | 1.32 | 

Row | SMILES | fold increase | viability [%]
25 | CCOC(=O)c1ccc(N=C(C)c2c(O)[nH]c(=O)[nH]c2=O)cc1 | 1.36 | 97.8
26 | Cc1cccc(N2C(=O)NC(=O)/C(=C/c3ccc([N+](=O)[O-])o3)C2=O)c1 | 1.32 | 99.1
27 | O=C1NC(=O)N(Cc2ccc(F)cc2)C(=O)/C1=C\c1ccoc1 | 2.57 | 98.4
28 | Cc1cccc(-n2c(O)c(/C=C/C=Nc3ccccc3)c(=O)[nH]c2=O)c1 | 2.71 | 
29 | CCCCC(=O)N/N=C/c1c(O)n(CC)c(=S)n(CC)c1=O | 1.32 | 
30 | Cc1ccccc1-n1c(C)cc(/C=C2/C(=O)NC(=O)N(Cc3ccco3)C2=O)c1C | 1.82 | 97.1
31 | COc1cc(/C=C/c2nc3ccccc3c(=O)n2-c2cccc(O)c2)ccc1O | 5.59 | 81.3
32 | Cc1nc2ccccc2c(=O)n1-n1cnnc1 | 1.44 | 101
33 | CN1CCN(c2ccc(/C=C3\C(=O)NC(=S)N(c4cccc(Br)c4)C3=O)o2)CC1 | 1.48 | 
34 | CN1CCN(c2ccc([N+](=O)[O-])c3no[n+]([O-])c23)CC1 | 4.91 | 
35 | C=CCN1C(=O)/C(=C/c2cc(C)n(-c3cccnc3)c2C)C(=O)NC1=S | 1.36 | 94.2
36 | O=c1[nH]c(=O)n(Cc2ccccc2)c(O)c1C=NCCCO | 1.37 | 96.2
37 | Cc1cc(C)cc(N2C(=O)/C(=C\c3ccc(N4CCN(C)CC4)o3)C(=O)NC2=S)c1 | 2.57 | 92.7
38 | O=C1NC(=O)C(=Cc2ccc(-c3cc(Cl)ccc3[N+](=O)[O-])o2)C(=O)N1 | 1.42 | 62.5
39 | Nc1c(C(=O)NCC2CCCO2)c2nc3ccccc3nc2n1Cc1ccco1 (stereo unspecified) | 1.39 | 
40 | O=C1NC(=O)N(c2ccc(Cl)cc2)C(=O)/C1=C\c1ccc(Sc2nc3ccccc3[nH]2)o1 | 1.49 | 94.5
41 | CN(C)/C=C1/C(=O)NC(=O)N(CCNc2ncc(C(F)(F)F)cc2Cl)C1=O | 1.47 | 99
42 | CC(=O)C1C2c3ccccc3O[C@@]1(C)N=c1s/c(=C/c3ccoc3)c(=O)n12 (stereo partly specified) | 2.37 | 93.5
43 | CCOc1cc(C2C(C#N)=C(N)Oc3c2c(=O)oc2ccccc32)ccc1OC(=O)c1cccs1 (stereo unspecified) | 1.58 | 99.5
44 | Nc1c(C(=O)NCCN2CCOCC2)c2nc3ccccc3nc2n1Cc1ccco1 | 1.17 | 89.3
45 | CC1(C(O)(C#CCN2CCCCC2)c2ccccc2)CCCC1 (stereo unspecified) | 1.49 | 78.1
46 | CN1CCC2(CC1)C(C#N)=C(N)NC(S)=C2C#N | 1.38 | 91.3
47 | CCN1C(=O)C(=C/C=C/c2ccco2)C(=O)N(CC)C1=S | 1.87 | 95.4
48 | O=C1NC(=S)N(Cc2ccco2)C(=O)/C1=C\c1cccs1 | 1.34 | 
